# Measurements reported in the supplement of paper PMC8728848.
# The list shows a part of the results.
# Experiments:
# Assay in all cases: glycan array binding signal (z-score within array); higher = stronger binding
# Conditions in all cases: glycan notation: IUPAC condensed, linker removed
# [1] = molecular target: Fuc(a1-3)[Gal3S(b1-4)]GlcNAc6S
# Procedure, shortened: (§1)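 Arrays were curated from the Consortium for Functional Glycomics database, 3228 in total, and kept only where the protein sequence was available. Binding is expressed as a within-array Z-score. This score was averaged across arrays of the same protein sequence at different concentrations or buffers and across linkers, and negative values can be read as non-binding.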
# [2] = molecular target: Fuc(a1-3)[GalNAc(b1-4)]GlcNAc
# Procedure, shortened: as §1
# [3] = molecular target: Fuc(a1-3)[GalNAc(b1-4)]GlcNAc6S
# Procedure, shortened: as §1
# [4] = molecular target: Fuc(a1-4)GlcNAc
# Procedure, shortened: as §1
# [5] = molecular target: Fuc(b1-3)GlcNAc
# Procedure, shortened: as §1
# [6] = molecular target: Gal(a1-2)Gal
# Procedure, shortened: as §1
# [7] = molecular target: Gal(a1-3)Gal
# Procedure, shortened: as §1
# [8] = molecular target: Gal(a1-3)Gal(b1-3)GlcNAc
# Procedure, shortened: as §1
# [9] = molecular target: Gal(a1-3)Gal(b1-3)GlcNAc(b1-2)Man
# Procedure, shortened: as §1
# [10] = molecular target: Gal(a1-3)Gal(b1-3)GlcNAc(b1-2)Man(a1-3)[Gal(a1-3)Gal(b1-3)GlcNAc(b1-2)Man(a1-6)]Man(b1-4)GlcNAc(b1-4)GlcNAc
# Procedure, shortened: as §1
# [11] = molecular target: Gal(a1-3)Gal(b1-3)GlcNAc(b1-3)GalNAc
# Procedure, shortened: as §1
# [12] = molecular target: Gal(a1-3)Gal(b1-3)GlcNAc(b1-6)GalNAc
# Procedure, shortened: as §1
# [13] = molecular target: Gal(a1-3)Gal(b1-3)[Fuc(a1-4)]GlcNAc(b1-2)Man(a1-3)[Gal(a1-3)Gal(b1-3)[Fuc(a1-4)]GlcNAc(b1-2)Man(a1-6)]Man(b1-4)GlcNAc(b1-4)GlcNAc
# Procedure, shortened: as §1
# [14] = molecular target: Gal(a1-3)Gal(b1-4)Glc
# Procedure, shortened: as §1
# [15] = molecular target: Gal(a1-3)Gal(b1-4)GlcNAc
# Procedure, shortened: as §1
# [16] = molecular target: Gal(a1-3)Gal(b1-4)GlcNAc(b1-2)Man
# Procedure, shortened: as §1
# [17] = molecular target: Gal(a1-3)Gal(b1-4)GlcNAc(b1-2)Man(a1-3)[Gal(a1-3)Gal(b1-4)GlcNAc(b1-2)Man(a1-6)]Man(b1-4)GlcNAc(b1-4)GlcNAc
# Procedure, shortened: as §1
# [18] = molecular target: Gal(a1-3)Gal(b1-4)GlcNAc(b1-3)GalNAc
# Procedure, shortened: as §1
# [19] = molecular target: Gal(a1-3)Gal(b1-4)GlcNAc(b1-6)GalNAc
# Procedure, shortened: as §1
# [20] = molecular target: Gal(a1-3)Gal(b1-4)[Fuc(a1-3)]GlcNAc
# Procedure, shortened: as §1
# [21] = molecular target: Gal(a1-3)Gal(b1-4)[Fuc(a1-3)]GlcNAc(b1-2)Man(a1-3)[Gal(a1-3)Gal(b1-4)[Fuc(a1-3)]GlcNAc(b1-2)Man(a1-6)]Man(b1-4)GlcNAc(b1-4)GlcNAc
# Procedure, shortened: as §1
# [22] = molecular target: Gal(a1-3)GalNAc
# Procedure, shortened: as §1
# [23] = molecular target: Gal(a1-3)[Gal(a1-4)]Gal(b1-4)GlcNAc
# Procedure, shortened: as §1
# [24] = molecular target: Gal(a1-4)Gal(b1-3)GlcNAc(b1-2)Man(a1-3)[Gal(a1-4)Gal(b1-3)GlcNAc(b1-2)Man(a1-6)]Man(b1-4)GlcNAc(b1-4)GlcNAc
# Procedure, shortened: as §1
# [25] = molecular target: Gal(a1-4)Gal(b1-4)Glc
# Procedure, shortened: as §1
# [26] = molecular target: Gal(a1-4)Gal(b1-4)GlcNAc
# Procedure, shortened: as §1
# [27] = molecular target: Gal(a1-4)Gal(b1-4)GlcNAc(b1-2)Man(a1-3)[Gal(a1-4)Gal(b1-4)GlcNAc(b1-2)Man(a1-6)]Man(b1-4)GlcNAc(b1-4)GlcNAc
# Procedure, shortened: as §1
# [28] = molecular target: Gal(a1-4)Gal(b1-4)GlcNAc(b1-3)Gal(b1-4)Glc
# Procedure, shortened: as §1
# [29] = molecular target: Gal(a1-4)GlcNAc
# Procedure, shortened: as §1
# [30] = molecular target: Gal(a1-6)Glc
# Procedure, shortened: as §1
# [31] = molecular target: Gal(b1-2)Gal
# Procedure, shortened: as §1
# [32] = molecular target: Gal(b1-3)Gal
# Procedure, shortened: as §1
# [33] = molecular target: Gal(b1-3)Gal(b1-4)GlcNAc
# Procedure, shortened: as §1
# [34] = molecular target: Gal(b1-3)GalNAc
# Procedure, shortened: as §1
# [35] = molecular target: Gal(b1-3)GalNAc(a1-3)[Fuc(a1-2)]Gal(b1-4)Glc
# Procedure, shortened: as §1
# [36] = molecular target: Gal(b1-3)GalNAc(a1-3)[Fuc(a1-2)]Gal(b1-4)GlcNAc
# Procedure, shortened: as §1
# [37] = molecular target: Gal(b1-3)GalNAc(b1-3)Gal
# Procedure, shortened: as §1
binder,measurement,setting,value
diCBM40 CPF071 (Clostridium perfringens) (protein) MAHHHHHHVGTGSNDDDDKSPDPMLSSLGEYKDINLESSNASNITYDLEKYKNLDEGTIVVRFNSKDSKIQSLLGISNSKTKNGYFNFYVTNSRVGFELRNQKNEGNTQNGTENLVHMYKDVALNDGDNTVALKIEKNKGYKLFLNGKMIKEVKDTNTKFLNNIENLDSAFIGKTNRYGQSNEYNFKGNIGFMNIYNEPLGDDYLLSKTGETKALNGSELGSGSGLSSLGEYKDINLESSNASNITYDLEKYKNLDEGTIVVRFNSKDSKIQSLLGISNSKTKNGYFNFYVTNSRVGFELRNQKNEGNTQNGTENLVHMYKDVALNDGDNTVALKIEKNKGYKLFLNGKMIKEVKDTNTKFLNNIENLDSAFIGKTNRYGQSNEYNFKGNIGFMNIYNEPLGDDYLLSKTGETK,glycan array binding signal (z-score),[1],-0.332
same,glycan array binding signal (z-score),[2],-0.303
same,glycan array binding signal (z-score),[3],-0.31
same,glycan array binding signal (z-score),[4],0.337
same,glycan array binding signal (z-score),[5],-0.339
same,glycan array binding signal (z-score),[6],-0.331
same,glycan array binding signal (z-score),[7],0.026
same,glycan array binding signal (z-score),[8],-0.198
same,glycan array binding signal (z-score),[9],-0.119
same,glycan array binding signal (z-score),[10],0.337
same,glycan array binding signal (z-score),[11],-0.325
same,glycan array binding signal (z-score),[12],-0.342
same,glycan array binding signal (z-score),[13],0.823
same,glycan array binding signal (z-score),[14],-0.245
same,glycan array binding signal (z-score),[15],-0.217
same,glycan array binding signal (z-score),[16],-0.323
same,glycan array binding signal (z-score),[17],-0.182
same,glycan array binding signal (z-score),[18],-0.317
same,glycan array binding signal (z-score),[19],-0.344
same,glycan array binding signal (z-score),[20],-0.136
same,glycan array binding signal (z-score),[21],-0.329
same,glycan array binding signal (z-score),[22],-0.324
same,glycan array binding signal (z-score),[23],-0.317
same,glycan array binding signal (z-score),[24],-0.185
same,glycan array binding signal (z-score),[25],-0.292
same,glycan array binding signal (z-score),[26],-0.309
same,glycan array binding signal (z-score),[27],-0.339
same,glycan array binding signal (z-score),[28],-0.311
same,glycan array binding signal (z-score),[29],-0.307
same,glycan array binding signal (z-score),[30],-0.349
same,glycan array binding signal (z-score),[31],-0.348
same,glycan array binding signal (z-score),[32],-0.341
same,glycan array binding signal (z-score),[33],-0.128
same,glycan array binding signal (z-score),[34],-0.294
same,glycan array binding signal (z-score),[35],-0.327
same,glycan array binding signal (z-score),[36],-0.308
same,glycan array binding signal (z-score),[37],-0.318
